The results in this text go back to PMC8376998.

Amino acid sequences for entries named in this document (tags omitted). A change or cut given only in a name is not applied to a line headed by its entry. Chains listed by the source or under a name are the forms on record and can include a tag or linker. Residues count along the entry.
UniProt Q16637: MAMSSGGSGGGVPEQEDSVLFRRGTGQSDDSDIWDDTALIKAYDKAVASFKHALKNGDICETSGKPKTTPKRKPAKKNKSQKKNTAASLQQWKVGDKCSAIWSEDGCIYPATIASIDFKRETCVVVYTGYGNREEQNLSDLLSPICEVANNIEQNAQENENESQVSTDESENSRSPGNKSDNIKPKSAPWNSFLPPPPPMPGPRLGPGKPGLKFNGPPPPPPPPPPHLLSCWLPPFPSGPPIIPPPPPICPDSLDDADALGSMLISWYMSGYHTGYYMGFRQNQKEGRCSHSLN
GST-fused wild-type SMN Tudor domain: residues 91-151 of Q16637
GST-fused SMN Tudor domain SIM mutant (2VA) (Q16637, form named): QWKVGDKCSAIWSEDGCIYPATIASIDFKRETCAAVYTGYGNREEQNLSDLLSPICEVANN
UniProt Q8TEQ6: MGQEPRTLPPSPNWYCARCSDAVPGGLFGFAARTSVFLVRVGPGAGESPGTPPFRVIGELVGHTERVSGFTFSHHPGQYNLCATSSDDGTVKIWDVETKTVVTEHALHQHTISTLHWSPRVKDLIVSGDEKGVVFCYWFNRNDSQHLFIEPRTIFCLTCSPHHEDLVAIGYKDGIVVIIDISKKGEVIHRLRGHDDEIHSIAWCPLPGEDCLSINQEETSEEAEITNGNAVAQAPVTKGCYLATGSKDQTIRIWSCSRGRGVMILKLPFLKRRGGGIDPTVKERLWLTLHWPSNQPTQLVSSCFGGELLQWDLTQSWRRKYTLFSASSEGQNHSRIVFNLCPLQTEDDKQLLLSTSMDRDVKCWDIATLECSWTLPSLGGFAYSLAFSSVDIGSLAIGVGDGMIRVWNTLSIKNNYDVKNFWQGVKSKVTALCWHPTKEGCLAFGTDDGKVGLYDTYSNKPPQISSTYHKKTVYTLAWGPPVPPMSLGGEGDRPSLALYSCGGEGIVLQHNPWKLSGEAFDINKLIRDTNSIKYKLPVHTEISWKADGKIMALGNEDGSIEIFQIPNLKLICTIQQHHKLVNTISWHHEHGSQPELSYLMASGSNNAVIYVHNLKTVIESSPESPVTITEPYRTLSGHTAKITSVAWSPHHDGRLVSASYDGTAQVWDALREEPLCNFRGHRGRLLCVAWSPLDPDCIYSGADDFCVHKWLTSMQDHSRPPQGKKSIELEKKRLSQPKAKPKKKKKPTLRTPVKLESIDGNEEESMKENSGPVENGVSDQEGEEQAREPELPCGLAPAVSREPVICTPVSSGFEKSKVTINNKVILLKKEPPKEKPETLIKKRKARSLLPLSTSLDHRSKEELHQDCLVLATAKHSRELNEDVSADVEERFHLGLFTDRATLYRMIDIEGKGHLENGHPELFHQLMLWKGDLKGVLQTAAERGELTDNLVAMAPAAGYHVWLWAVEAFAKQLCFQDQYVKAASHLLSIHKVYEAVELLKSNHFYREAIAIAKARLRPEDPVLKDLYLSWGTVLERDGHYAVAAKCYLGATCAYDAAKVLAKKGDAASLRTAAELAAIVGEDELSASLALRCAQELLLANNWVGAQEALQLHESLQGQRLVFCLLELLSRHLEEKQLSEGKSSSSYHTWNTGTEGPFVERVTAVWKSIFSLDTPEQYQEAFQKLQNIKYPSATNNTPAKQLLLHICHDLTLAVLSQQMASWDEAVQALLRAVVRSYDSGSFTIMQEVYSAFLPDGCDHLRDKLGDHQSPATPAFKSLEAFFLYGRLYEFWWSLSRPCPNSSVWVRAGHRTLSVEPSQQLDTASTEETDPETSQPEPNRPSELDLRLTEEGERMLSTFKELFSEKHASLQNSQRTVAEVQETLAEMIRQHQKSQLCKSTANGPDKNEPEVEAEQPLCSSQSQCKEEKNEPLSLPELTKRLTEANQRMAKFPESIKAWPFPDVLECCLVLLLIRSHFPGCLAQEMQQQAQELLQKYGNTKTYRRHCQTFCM
UniProt P61956: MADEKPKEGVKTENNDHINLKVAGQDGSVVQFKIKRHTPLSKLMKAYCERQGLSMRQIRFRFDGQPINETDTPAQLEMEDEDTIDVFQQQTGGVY
UniProt P63165, residues 1-97: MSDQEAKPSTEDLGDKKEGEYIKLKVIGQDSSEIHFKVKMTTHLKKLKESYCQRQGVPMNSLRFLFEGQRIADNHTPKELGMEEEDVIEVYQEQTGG
UniProt Q9UHI6: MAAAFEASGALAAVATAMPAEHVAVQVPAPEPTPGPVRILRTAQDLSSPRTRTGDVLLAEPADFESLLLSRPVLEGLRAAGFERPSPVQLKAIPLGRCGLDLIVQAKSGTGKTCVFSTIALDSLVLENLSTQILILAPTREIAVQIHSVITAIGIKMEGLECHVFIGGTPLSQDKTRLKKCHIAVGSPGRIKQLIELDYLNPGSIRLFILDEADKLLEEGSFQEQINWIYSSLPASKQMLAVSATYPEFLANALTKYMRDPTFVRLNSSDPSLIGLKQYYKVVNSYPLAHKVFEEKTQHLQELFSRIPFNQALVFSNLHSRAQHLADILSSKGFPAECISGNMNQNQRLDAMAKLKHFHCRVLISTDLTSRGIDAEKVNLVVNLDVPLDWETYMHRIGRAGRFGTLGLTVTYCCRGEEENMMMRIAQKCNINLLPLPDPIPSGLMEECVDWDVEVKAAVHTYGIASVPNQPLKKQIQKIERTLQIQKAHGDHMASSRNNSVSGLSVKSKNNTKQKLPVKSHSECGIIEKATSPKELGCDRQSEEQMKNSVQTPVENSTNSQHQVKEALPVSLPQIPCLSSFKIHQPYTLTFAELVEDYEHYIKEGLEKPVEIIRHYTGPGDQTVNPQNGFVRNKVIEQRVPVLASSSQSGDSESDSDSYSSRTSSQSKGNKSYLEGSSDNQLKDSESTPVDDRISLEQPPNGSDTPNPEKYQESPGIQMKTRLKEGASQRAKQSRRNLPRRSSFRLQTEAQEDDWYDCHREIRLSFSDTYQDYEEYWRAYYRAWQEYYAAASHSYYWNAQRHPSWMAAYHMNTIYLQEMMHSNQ

Results are given in words; binding and its absence hold for the method and conditions named. For part of these data: Binding seen in cells or lysates may run through a third protein. Some entries that bind do so weakly or less than the wild type.

Assay [1] has as its target GST-fused SMN Tudor domain SIM mutant (2VA) (human) (UniProt Q16637). As to the kind of experiment: pull-down; purified His-SUMO1 or His-SUMO-2 incubated with GST-fused SMN Tudor domain (WT or 2VA), pulled down with Glutathione-sepharose beads; immunoblot; 3 h at 4 °C in 50 mM Tris-HCl pH 7.5, 100 mM NaCl, 10 μm ZnCl2, 10% glycerol, 0.1 mM DTT; both purified. On the technique in general: In western blotting, separated proteins are transferred to a membrane and probed.

The target of assay [2] is GST-fused wild-type SMN Tudor domain (human) (UniProt Q16637). The assay is described as above.
The target in assay [3] is FLAG-tagged SMN wildtype (human) (UniProt Q16637). As to the kind of experiment: co-IP; lysates of HEK-293T cells transfected with FLAG-tagged SMN or GEMIN5, precipitated with anti-FLAG (M2) agarose beads; Western blot of the precipitates; naive HEK-293T as control.
Assay [4] concerns the target FLAG-tagged SMN-E134K (SMA mutant) (human) (UniProt Q16637). The assay is described as above.
In assay [5] the target is FLAG-tagged GEMIN5 wildtype (UniProt Q8TEQ6). The description is as above.

Turning to “His-tagged SUMO-2 recombinant protein (from UniProt P61956 1-95)”, the binding result in assay [1] is “no binding”; in assay [2] it was “binds”.

Consider “His-tagged SUMO-1 recombinant protein (from UniProt P63165 1-97)”, for which the binding result is recorded as “no binding” in assay [1] and “binds” in assay [2].

Take “endogenous GEMIN5 (HEK-293T) (from UniProt Q8TEQ6 1-1508)”: the binding entry in assay [3] and in assay [4] was “binds” each time. As to “endogenous GEMIN3 (HEK-293T) (from UniProt Q9UHI6 1-824)”, the binding entry in assay [3] and in assay [4] was “binds” throughout. For the substance “SMN found with FLAG-GEMIN5 (HEK-293T) (from UniProt Q16637 1-294)”, the binding result in assay [5] is reported as “binds”.
